Laboratory results taken from PubChem BioAssay AID1508649 (National Center for Advancing Translational Sciences (NCATS), 2021).
Screen size: about 43,000 compounds; about 830 (1.9%) were called active. The inconclusive results got no clear call from the source; some entries with a clear call stand among them for comparison. Rule for the calls: active = clear falling dose curves in both reporters; inconclusive = both reporters move, but less clearly or upward; inactive = either reporter flat; the % is the NLuc reporter signal. No potency is given beside an inconclusive call; the fits are too rough.

assay: Cell-based coincidence reporter assay to measure PMP22 gene transcription in S16 Pmp22-F2sN cells - Primary screen; conditions: S16 Pmp22-F2sN Schwann cells (luciferase reporters placed in the Pmp22 gene), FLuc/NLuc coincidence luminescence, 24 h; measured here: NLuc reporter readout, at 57.5 µM (top of the series); activity change, negative = inhibition: at the top concentration
Procedure, shortened: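 Reporter cells (S16 Pmp22-F2sN, 500–1,000 per well) exposed to compounds for 24 h, 37C, 5% CO2; lysis with FLuc read after 10 min, then Stop&Glo and NLuc read after 10 min.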
% is set by controls: 0 for no effect and ±100 for the full control effect; potency is the fitted concentration of half-maximal effect; tags give direction and shape of the fitted curve.

Compound	Potency	activity change, negative = inhibition
Cc1n[nH]c(C)c1CCc1nc2c3ccccc3nc(SCC(=O)Nc3ccc(F)cc3)n2n1	inconclusive [phenotype inactive, partial curve]	
Cc1cc(C)c(Cn2c3ccccc3c3cnn(CC(=O)NCc4ccc(Cl)cc4)c(=O)c32)c(C)c1	inconclusive [phenotype inactive, single point]	
CCOc1ccccc1NC(=O)Nc1cc(C(=O)NCc2ccc(C)cc2)ccc1N1CCCC1	inconclusive [phenotype inactive, single point]	
COc1ccc(N2CCN(C(=O)c3ccc4c(=O)n(CCc5ccc(OC)c(OC)c5)c(=O)[nH]c4c3)CC2)cc1	active: 13.4 µM	
CCN(C(=O)CSc1nnc(-c2cc3occc3n2C)n1-c1ccccc1C)c1cccc(C)c1	inconclusive [phenotype inactive, single point]	
COc1ccc(-n2c(=O)c3ccc(C(=O)NCc4ccc(C)cc4)cc3n(Cc3cccc(Cl)c3)c2=O)cc1	inconclusive [phenotype inactive, single point]	
Cc1c(C(=O)NCc2ccccc2)sc2nc[nH]c(=O)c12		inactive: -38.2%
COc1cc2nc(NC(=O)c3ccc(S(=O)(=O)N4CCc5ccccc54)cc3)sc2cc1OC		inactive: -23.3%
Cc1ccc(S(=O)(=O)c2cnc(SCC(=O)Nc3ccc4c(c3)OCCO4)[nH]c2=O)cc1C		inactive: -38.9%
CCC(=O)N1CCc2cc(S(=O)(=O)NCc3ccc(C)cc3)ccc21	inconclusive [phenotype inactive, partial curve, poor fit]	
O=C(Cn1cc(S(=O)(=O)N2CCCC2)c(S(=O)(=O)N2CCCC2)c1)Nc1ccc(F)cc1		inactive: -8.39%
CCOC(=O)N1CCN(Cc2nc3cc(NC(=O)c4ccccc4Cl)ccc3n2C(C)C)CC1	inconclusive [phenotype inactive, partial curve, poor fit]	
COc1ccc(NC(=O)C2CCN(S(=O)(=O)c3ccc4[nH]c5c(c4c3)CCCCC5)CC2)cc1	inconclusive [phenotype inactive, single point]	
CCOc1ccc(NC(=O)Cn2c(=O)n(-c3ccccc3)c(=O)c3ccc(C(=O)NCc4ccc5c(c4)OCO5)cc32)cc1	inconclusive [phenotype inactive, partial curve]	
Cc1ccc(C)c(NC(=O)c2cc(S(=O)(=O)N3CCCc4ccccc43)ccc2F)c1	inconclusive [phenotype inactive, single point]	
CCC1CN(C(=O)NCc2ccc(C)cc2)c2ccccc2O1 (configuration not stated)		inactive: 1.53%
CCCCn1cc(S(=O)(=O)c2ccc(OC)cc2)c(=O)c2cc(CC)ccc21	inconclusive [phenotype inactive, single point]	
COc1ccc(-c2nn3c(=O)cc(CN4CCN(C(=O)c5ccc(OC)c(OC)c5)CC4)nc3s2)cc1		inactive: 12.8%
CCOc1ccccc1Nc1sc(C(=O)c2ccccc2)c(N)c1C(=O)Nc1ccccc1	inconclusive [phenotype inactive, single point]	

Compound	Potency	activity change, negative = inhibition
Cc1nnc(N2CCC(C(=O)N3CCCCC3)CC2)c2nn(-c3ccc(Cl)cc3)c(C)c12	active: 18.9 µM	
Cc1ccc(NC(=O)c2nc(S(C)(=O)=O)ncc2N(Cc2ccco2)Cc2cccs2)c(C)c1	inconclusive [phenotype inactive, partial curve, poor fit]	
Cc1ccc(OCC(=O)Nc2nnc(S(=O)(=O)N3c4ccccc4CC3C)s2)cc1 (configuration not stated)		inactive: 7.38%
Cc1ccc(-n2ncc(C(=O)NCCc3ccccc3)c2C2CCN(C(=O)OC(C)(C)C)CC2)c(C)c1	inconclusive [phenotype inactive, single point]	
Cc1nc(-c2ccc(S(=O)(=O)Nc3ccc(C#N)cc3)cc2)co1		inactive: 13.1%
COc1ccc(OCC(=O)Nc2cc(-c3ccccc3F)nn2-c2ccccc2)cc1	inconclusive [phenotype inactive, single point]	
CCCCn1cc2c(c1-c1ccccc1Br)c(=O)n(C)c(=O)n2C	active: 15 µM	
CCOc1ccc(NC(=O)CCC(=O)N2CC(C)Oc3ccc(C)cc32)cc1 (configuration not stated)	inconclusive [phenotype inactive, single point]	
O=C(CCC(=O)N1CC2CCCN2c2ccccc21)NCc1cccc(Cl)c1 (configuration not stated)	inconclusive [phenotype inactive, single point]	
COc1cc(OC)c(NC(=O)CC(c2cccs2)N2Cc3ccccc3C2=O)cc1Cl (configuration not stated)	inconclusive [phenotype inactive, single point]	
O=C(CSc1nc2c(c(=O)[nH]1)CN(Cc1ccc(F)cc1)CC2)Nc1ccccc1Cl	inconclusive [phenotype inactive, single point]	
CN(C)S(=O)(=O)n1cc(/C=C(\NC(=O)c2ccccc2Cl)C(=O)NCCCn2ccnc2)c2ccccc21	inconclusive [phenotype inactive, single point]	
CCC(Cc1ccccc1)NC(=O)CN1C(=O)COc2ccc(S(=O)(=O)N3CCCCCC3)cc21 (configuration not stated)	inconclusive [phenotype inactive, single point]	
COc1ccc(-c2cc(C(=O)NCCc3ccccc3)c3c(-c4ccccc4)[nH]nc3n2)cc1OC	inconclusive [phenotype inactive, single point]	
CCCOc1ccc(CN(C(=O)Cc2coc3ccc(CC)cc23)C2CCS(=O)(=O)C2)cc1 (configuration not stated)		inactive: 8.95%
CCCn1c(=O)sc2cc(NC(=O)c3ccc(OC)c(Br)c3)ccc21	inconclusive [phenotype inactive, single point]	
CCc1ccc(NC(=O)CCn2c(=O)c3cccn3c3ccccc32)cc1	inconclusive [phenotype inactive, single point]	
O=C(C1CCCN(S(=O)(=O)c2cccc3nsnc23)C1)N1CCN(c2ccccc2F)CC1 (configuration not stated)	inconclusive [phenotype inactive, partial curve]	
COc1ccccc1CCNC(=O)C(=O)NCC(c1cccs1)S(=O)(=O)c1cccs1 (configuration not stated)	inconclusive [phenotype inactive, single point]	

Compound	Potency	activity change, negative = inhibition
CN(C)CCNC(=O)C1CCN(Cc2cc3ccccc3n2Cc2ccccc2)CC1	inconclusive [phenotype inactive, partial curve]	
CCCOC(=O)c1c(NC(=O)C(C)Sc2nc(-c3ccccc3)cc(C(F)(F)F)n2)sc(C(=O)N(C)C)c1C (configuration not stated)	inconclusive [phenotype inactive, partial curve]	
CC(C)(C)CC(=O)NCC(c1ccc2c(c1)OCO2)N1CCN(c2ccccc2)CC1 (configuration not stated)	inconclusive [phenotype inactive, single point]	
COc1ccc(NC(=O)CSc2nc(-c3ccc(F)cc3)[nH]c2-c2ccc(C)cc2)cc1OC	inconclusive [phenotype inactive, single point]	
CC(C)(C)OC(=O)N1CCC(c2nnc(SCc3cccc(Cl)c3)o2)CC1		inactive: -33.6%
Cc1cc(O)c(C(c2ccccc2Cl)N2CCN(c3ccccc3)CC2)c(=O)n1Cc1ccco1 (configuration not stated)	inconclusive [phenotype inactive, single point]	
Cc1ccc(S(=O)(=O)Nc2cc3c(cc2N2CCOCC2)n(C)c(=O)n3C)c(C)c1	active: 15 µM	
CCC(C(=O)Nc1cccc(C#N)c1)n1c(=O)c(-c2ccccc2NC(C)=O)nc2ccccc21 (configuration not stated)	inconclusive [phenotype inactive, single point]	
Cc1cc(C)c(NC(=O)CSc2nccn2Cc2ccco2)c(C)c1		inactive: -0.264%
COc1ccc(-c2noc(-c3ccc(NCc4ccccc4OC)c([N+](=O)[O-])c3)n2)cc1		inactive: 5.74%
CC(=O)c1[nH]c(C)c(C(=O)NCCc2ccc(C)cc2)c1C		inactive: -6.6%
Cc1ccc(C(C)C)c(OCCn2cc(C(=O)c3ccco3)c3ccccc32)c1	inconclusive [phenotype inactive, single point]	
CCOc1ccc(-c2n[nH]c3c2C(c2ccccc2OC)N(c2ccc(Br)cc2)C3=O)cc1 (configuration not stated)	inconclusive [phenotype inactive, single point]	
CCc1nnc2c(NCc3ccc(F)cc3)nc3ccccc3n12	inconclusive [phenotype inactive, single point]	
CCc1ccc(Nc2cc(C)nc3nc(Cc4ccc(Cl)cc4)nn23)cc1	inconclusive [phenotype inactive, single point]	
COc1ccc(OCC(=O)Nc2cc(-c3cccc(Cl)c3)nn2-c2ccccc2)cc1	inconclusive [phenotype inactive, single point]	
CCOC(=O)c1c(C)oc2ncnc(NCCc3ccccc3)c12	inconclusive [phenotype inactive, single point]	
CCN(CC)c1ccc(NS(=O)(=O)c2ccc3c(c2)CCCN3C(C)=O)c(C)c1	inconclusive [phenotype inactive, single point]	
COC(=O)c1ccc(C2C=C(c3ccc(Cl)cc3)Nc3nc4ccccc4n32)cc1 (configuration not stated)	inconclusive [phenotype inactive, single point]	
